Results published in PubChem BioAssay AID1259400 (National Center for Advancing Translational Sciences (NCATS), 2018).
Hit rate of the full screen: of about 350,000 compounds, about 2,100 (0.6%) were called active. The shares of active, inactive and inconclusive entries below differ from those in the screen.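 How the source made its calls: active means activity change of -60% or lower, but not beyond a set lower limit; inconclusive means change between -60% and -40%, or beyond the set limit; inactive means change above -40%.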

Biological target: Relaxin receptor 1 (Homo sapiens) (UniProt Q9HBX9)
Assay: qHTS Assay for Antagonists of the Relaxin Receptor RXFP1
Details: HEK293-RXFP1, relaxin-stimulated cAMP HTRF, 30 min; at 57.5 µM; stronger effect = lower value
On the % scale 0 is the no-effect control and ±100 the full control effect.

UniProt Q9HBX9, sequence (Q9HBX9 whole entry, looked up): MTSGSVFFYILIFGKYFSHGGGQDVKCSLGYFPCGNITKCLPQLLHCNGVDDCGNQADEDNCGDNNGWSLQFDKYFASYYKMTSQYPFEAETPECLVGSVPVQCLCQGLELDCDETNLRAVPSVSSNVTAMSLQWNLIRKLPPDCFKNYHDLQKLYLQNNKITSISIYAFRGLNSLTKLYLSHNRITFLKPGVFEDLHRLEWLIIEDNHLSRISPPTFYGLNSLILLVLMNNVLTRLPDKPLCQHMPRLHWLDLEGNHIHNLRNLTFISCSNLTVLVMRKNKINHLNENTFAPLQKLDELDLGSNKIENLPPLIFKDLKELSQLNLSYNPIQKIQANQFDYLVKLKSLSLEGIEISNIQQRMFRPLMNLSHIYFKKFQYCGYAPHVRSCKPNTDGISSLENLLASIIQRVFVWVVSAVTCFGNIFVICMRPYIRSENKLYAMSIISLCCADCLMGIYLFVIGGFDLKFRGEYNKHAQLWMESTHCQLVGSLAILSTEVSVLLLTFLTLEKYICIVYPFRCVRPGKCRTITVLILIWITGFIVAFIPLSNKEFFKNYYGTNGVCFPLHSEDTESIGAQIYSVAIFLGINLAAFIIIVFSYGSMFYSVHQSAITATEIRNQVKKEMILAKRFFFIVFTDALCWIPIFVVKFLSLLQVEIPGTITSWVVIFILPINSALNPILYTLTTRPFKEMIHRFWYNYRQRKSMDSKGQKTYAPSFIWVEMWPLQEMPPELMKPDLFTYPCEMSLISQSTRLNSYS

Which activity change, negative = inhibition does the source give for `COc1ccc(/C=N/n2cnnc2SCc2ccccc2)cc1` here?
The activity change, negative = inhibition was inactive: -23.6%.

With `O=C(N/N=C/c1ccco1)c1cc(-c2cccc(Br)c2)nc2ccccc12` as the molecule, how does the activity change, negative = inhibition read?
The activity change, negative = inhibition was inconclusive: -48.9%.

With `O=C(O)/C=C/C(=O)Nc1ccc(C2(c3ccc(NC(=O)/C=C/C(=O)O)cc3)c3ccccc3-c3ccccc32)cc1` as the molecule, how does the activity change, negative = inhibition read?
Its activity change, negative = inhibition is active: -61.2%.

`CC(=O)OCC1=C(C(=O)O)N2C(=O)C(NC(=O)COc3ccc(F)cc3)C2SC1` (centres undefined) was tested. Which activity change, negative = inhibition did it give?
The activity change, negative = inhibition was inconclusive: -44%.

How did the activity change, negative = inhibition turn out when `S=c1[nH]c(-c2ccc(Br)cc2)cn1CCc1ccccc1` was run?
Its activity change, negative = inhibition is inconclusive: -54.4%.

Which activity change, negative = inhibition does the source give for `CCC1=Nc2cc(C(=O)N3CCC(C)CC3)ccc2Sc2ccc(C)cc21` here?
Its activity change, negative = inhibition is inconclusive: -51.8%.

With `CCOC(=O)c1c(C)[nH]c(C(=O)COC(=O)CNS(=O)(=O)c2ccc(C)cc2)c1C` as the molecule, how does the activity change, negative = inhibition read?
The activity change, negative = inhibition was inactive: -10.1%.

How did the activity change, negative = inhibition turn out when `CCCC(=O)Nc1nnc(-c2ccc3c(c2)OCCO3)o1` was run?
Its activity change, negative = inhibition is inactive: -7.16%.

`O=C(NNC(=S)Nc1ccc(F)cc1)c1cccc([N+](=O)[O-])c1` was tested. Which activity change, negative = inhibition did it give?
The activity change, negative = inhibition was inconclusive: -42.2%.

How did the activity change, negative = inhibition turn out when `CC(C)(C)c1cc(C(=O)NNC(=O)Nc2cccc(Cl)c2)n(Cc2ccccc2)n1` was run?
The activity change, negative = inhibition was inconclusive: -40.2%.

For `COc1cccc(CC2(CO)CCCN(Cc3ccccc3-c3ccco3)C2)c1` (centres undefined), which activity change, negative = inhibition is on record?
The activity change, negative = inhibition was inconclusive: -43.6%.

How did the activity change, negative = inhibition turn out when `COc1ccc(N2CCN(C(=O)c3ccc(CS(=O)c4cccc(C)c4)o3)CC2)cc1` (centres undefined) was run?
Its activity change, negative = inhibition is inconclusive: -49.5%.

Which activity change, negative = inhibition does the source give for `COc1cc(NC(=O)CSc2ccc(-c3sc(C)nc3C)nn2)cc(OC)c1` here?
Its activity change, negative = inhibition is inconclusive: -48.5%.

`C=CCN(CC=C)CCOc1ccccc1[N+](=O)[O-]` was tested. Which activity change, negative = inhibition did it give?
Its activity change, negative = inhibition is inconclusive: -48%.

Which activity change, negative = inhibition does the source give for `CCCN(CCC)C(=O)CSc1nc2ccccc2c(=O)n1C1CCCC1` here?
The activity change, negative = inhibition was inconclusive: -48%.

How did the activity change, negative = inhibition turn out when `O=C(COC(=O)/C=C/c1ccc(Cl)cc1)NC(=O)NCc1ccccc1` was run?
The activity change, negative = inhibition was active: -61.4%.

For `CC1=NN(c2cccc(C(=O)O)c2)C(=O)/C1=C\C=C/c1ccccc1`, which activity change, negative = inhibition is on record?
Its activity change, negative = inhibition is active: -74.6%.

For `COc1cc(/C=N/NC(N)=O)cc([N+](=O)[O-])c1O`, which activity change, negative = inhibition is on record?
The activity change, negative = inhibition was inconclusive: -54.2%.

For `O=C1Nc2ccc(Br)cc2/C1=C/C(=O)c1ccc2c(c1)OCO2`, which activity change, negative = inhibition is on record?
The activity change, negative = inhibition was active: -84%.

With `O=C(CSc1ccccc1)N1CCN(S(=O)(=O)c2ccccc2F)CC1` as the molecule, how does the activity change, negative = inhibition read?
Its activity change, negative = inhibition is inactive: 11.2%.

How did the activity change, negative = inhibition turn out when `COc1ccc(N(C)C(=O)c2ccc3c(Cl)c4c(nc3c2)CCCC4)c(OC)c1` was run?
The activity change, negative = inhibition was active: -96.3%.

How did the activity change, negative = inhibition turn out when `COc1ccc(-c2n(Cc3ccccc3)c3ccccc3[n+]2Cc2ccccc2)cc1` was run?
The activity change, negative = inhibition was inconclusive: -43.8%.

For `C[C@H](NC(=O)CCCOc1ccc(Cl)cc1Cl)c1nnc2ccccn12`, which activity change, negative = inhibition is on record?
The activity change, negative = inhibition was inconclusive: -40.5%.

Which activity change, negative = inhibition does the source give for `Cc1ccc(NC(=O)c2ccc(Cl)c(N3C(=O)C=CC3=O)c2)cc1` here?
Its activity change, negative = inhibition is inconclusive: -55.7%.
